Laboratory results: paper PMC4336329 (PLoS ONE, 2015)
The whole screen tested about 310,000 compounds, of which about 14,000 (4.5%) showed an effect of 50% or more. The effect is printed as a negative number. The list shows a part of the results.

The compounds below were run against human ether-à-go-go-related gene (hERG) potassium channel (human, UniProt Q12809) (assay: primary screen, population patch clamp on CHO cells stably expressing hERG).
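Note: peak tail current of the secondary pulse compared with the same well before compound.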

Chain of human ether-à-go-go-related gene (hERG) potassium channel (Q12809 whole entry, looked up): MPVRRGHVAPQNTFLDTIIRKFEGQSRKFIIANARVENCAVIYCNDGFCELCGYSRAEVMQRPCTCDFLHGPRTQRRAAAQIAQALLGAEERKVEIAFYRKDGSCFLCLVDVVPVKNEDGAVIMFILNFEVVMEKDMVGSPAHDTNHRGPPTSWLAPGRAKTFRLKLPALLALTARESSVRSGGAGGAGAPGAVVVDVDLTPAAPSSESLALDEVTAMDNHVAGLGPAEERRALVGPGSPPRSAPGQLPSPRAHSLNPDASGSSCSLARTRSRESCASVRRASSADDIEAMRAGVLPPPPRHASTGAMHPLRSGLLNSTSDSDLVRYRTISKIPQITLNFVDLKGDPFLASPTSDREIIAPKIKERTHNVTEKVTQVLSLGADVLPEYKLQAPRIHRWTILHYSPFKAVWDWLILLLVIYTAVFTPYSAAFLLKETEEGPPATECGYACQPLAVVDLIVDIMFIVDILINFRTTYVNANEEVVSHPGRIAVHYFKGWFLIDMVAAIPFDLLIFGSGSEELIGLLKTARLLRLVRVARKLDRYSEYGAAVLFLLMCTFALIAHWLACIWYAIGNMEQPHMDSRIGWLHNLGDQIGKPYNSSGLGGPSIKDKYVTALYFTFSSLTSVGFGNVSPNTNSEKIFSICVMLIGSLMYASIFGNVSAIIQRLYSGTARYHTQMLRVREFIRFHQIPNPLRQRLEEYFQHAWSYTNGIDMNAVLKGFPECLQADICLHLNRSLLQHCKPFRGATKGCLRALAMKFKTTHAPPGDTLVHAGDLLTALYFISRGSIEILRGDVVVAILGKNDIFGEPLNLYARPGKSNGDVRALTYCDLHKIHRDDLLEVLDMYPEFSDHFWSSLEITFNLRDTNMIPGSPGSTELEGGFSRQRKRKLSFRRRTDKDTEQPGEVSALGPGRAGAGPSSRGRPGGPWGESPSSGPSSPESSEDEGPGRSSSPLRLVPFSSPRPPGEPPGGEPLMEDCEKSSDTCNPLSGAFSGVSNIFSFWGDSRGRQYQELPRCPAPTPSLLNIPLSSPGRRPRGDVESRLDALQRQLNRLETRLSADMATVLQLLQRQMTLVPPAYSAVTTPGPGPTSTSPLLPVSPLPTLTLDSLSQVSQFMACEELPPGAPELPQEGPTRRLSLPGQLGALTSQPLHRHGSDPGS

Structure (SMILES) | hERG current change (%, negative = inhibition) at 10uM [%]
COc1ccc(NC(=O)c2ccc(-c3nn(C)c(=O)c4ccccc34)cc2)cc1C(N)=O | 6.4
Cc1c(Cl)cccc1Nc1nc(N)nc(CSC(=S)N2CCOCC2)n1 | -12.5
CC1CCC(NC(=O)Cn2cnc3sccc3c2=O)CC1 (stereo not drawn) | -3.86
O=C(CNS(=O)(=O)c1ccccc1)OCC(=O)c1ccc([N+](=O)[O-])cc1 | -3.22
CS(=O)(=O)N(CC(=O)N1CCCCCC1)c1cccc(F)c1 | 9.13
Cc1cccc(NC(=O)C2CCCN(S(=O)(=O)c3cccc4cccnc34)C2)c1 (stereo not drawn) | -41.5
O=C(CCCn1c(SCc2ccccc2F)nc2ccccc2c1=O)NCC1CCCO1 (stereo not drawn) | -14
COCCNC(=O)c1c[nH]c2cc(OC)c(OC)cc2c1=O | 15.9
c1ccc(CNc2ncnc3nc[nH]c23)nc1 | 5.41
CCC(CC)C(=O)Nc1cccc(C(=O)NCc2ccco2)c1 | 2.97
O=C(NC(=S)NCCc1ccccc1)C1CCCCC1 | 1.11
O=C(NCc1ccc2c(c1)OCO2)c1ccc(S(=O)(=O)N2CCOCC2)cc1 | 2.27
Cc1nn(-c2ccc(F)cc2)c(C)c1CN1CCN(CCc2ccccc2)C(CCO)C1 (stereo not drawn) | -67.5
NC(=O)c1sc2cc(C(F)(F)F)cnc2c1-c1ccccc1 | 15.5
Cc1cccc(CN2CCC(n3nccc3NC(=O)CCCc3ccccc3)CC2)n1 | -20.2
CC1(C)C2CCC1(CS(=O)(=O)Nc1ccc(S(=O)(=O)N3CCCCC3)cc1)C(=O)C2 (stereo not drawn) | -18.3
CC(C)CC(=O)NC(=S)Nc1ccccn1 | 14.5
Cc1ccc(S(=O)(=O)Nc2c(C)n(C)n(-c3ccccc3)c2=O)cc1C(=O)OC(C)C(=O)N(C)c1ccccc1 (stereo not drawn) | -10.5
Cc1nc(-c2ccccc2)sc1-c1ccnn1C | -6.14
OC(COc1ccc(F)cc1Cl)CN1CCC(Cc2ccccc2)CC1 (stereo not drawn) | -84.6
COc1ccc(/C=N/NC(=O)C(O)(c2ccccc2)c2ccccc2)cc1OC | -1.35
O=C(Nc1nnc(COc2ccccc2F)s1)Nc1ccccc1F | 18.6
CCCCc1ccc(Nc2ncccc2C#N)cc1 | 0.0115

Structure (SMILES) | hERG current change (%, negative = inhibition) at 10uM [%]
CC(=O)C(Cc1ccc(Cl)nc1)(Cc1ccc(Cl)nc1)C(C)=O | -7.36
CN1C(=S)SC(N(O)C(=O)Nc2cccc3ccccc23)C1(C)C (stereo not drawn) | 8.33
CN(C)c1ccc(/C=N/NC(=O)c2ccn(C)n2)cc1 | 11.9
O=C(CCc1ccccc1)Oc1ccccc1[N+](=O)[O-] | 7.07
CCOP(=O)(OCC)C(NC(=O)c1cccc2ccccc12)C(Cl)(Cl)Cl (stereo not drawn) | 1.75
CC(=O)NCCOc1ccc(C(=O)O)cc1 | 3.64
C=C(C)c1cccc(C(C)(C)NC(=O)NCCN(CC)CC)c1 | -6.65
CC1(C)CC(NC(=O)Cc2ccccc2[N+](=O)[O-])CC(C)(C)N1 | -4.2
Cc1ccc(-n2c(Cc3cccs3)nnc2SCC(=O)Nc2ccc(F)c(F)c2)cc1 | -22
COc1ccc(OC)c(C(C[N+](=O)[O-])c2c(C)cc3ccccn23)c1 (stereo not drawn) | 2.33
Cc1cccc(/C=N/NC(=O)c2ccc(NC(=O)c3cccc(Cl)c3)cc2)n1 | 11.7
COc1ccc2oc3cc(C)[n+]([O-])c(-c4ccc(Br)cc4)c3c2c1 | -0.16
CCCc1c2ccccc2nc2ccccc12 | -21.2
O=C(CSc1nc2[nH]ncc2c(=O)n1-c1ccccc1)NCc1cccs1 | 6.89
CN(C)CCCOC(=O)c1ccccc1Cl.Cl | -0.792
COc1ccc2[nH]c(=O)c(CN(Cc3nnnn3CCc3ccccc3)CC3CCCO3)cc2c1 (stereo not drawn) | -30.2
Cc1ccc(C(C)C)c(OCC(O)CN2CC(C)OC(C)C2)c1.Cl (stereo not drawn) | -8.64
COc1ccc(/C=N/n2c(C)nc3sc(C)c(C)c3c2=O)cc1 | 20.5
COc1ccc(N=C2SC(C(N)=O)CC(=O)N2CCc2ccc(OC)c(OC)c2)cc1 (stereo not drawn) | 1.7
C=C(C)c1cccc(C(C)(C)NC(=O)Nc2ccc(OC)cc2)c1 | 8.48
COc1cc(OC)cc(-n2nnnc2SCC(=O)Nc2nc3c(s2)CCCC3)c1 | 7.1
O=C(Nc1nc(-c2cccnc2)cs1)c1ccccc1Cl | 1.51
COC(=O)CC1C(=O)NCCN1C(=O)CSc1nc2ccc([N+](=O)[O-])cc2s1 (stereo not drawn) | 6.54

Structure (SMILES) | hERG current change (%, negative = inhibition) at 10uM [%]
CCOC(=O)C1C(C(=O)Nc2cccc(C(F)(F)F)c2)C1C(=O)NC(C)C (stereo not drawn) | 14.5
CCOc1ccccc1CNC(=O)c1nn(CC)cc1[N+](=O)[O-] | 9.07
Clc1ccc(-n2c(SCc3nc4ccccc4[nH]3)nnc2-c2ccncc2)cc1 | -39.3
O=C(COc1ccc2c3c(c(=O)oc2c1)CCC3)NC1CCCCC1 | 4.83
O=C1CC(c2cccs2)Sc2nc3ccccc3n21 (stereo not drawn) | 4.02
Cc1ccc(N2C(=O)CCC2=O)c(C)c1 | 7.49
COc1ccccc1NC(=O)Cc1nnc(SCC(=O)NC2=NCCS2)n1C | 8.56
CN(CC(=O)Nc1ccc(Cl)cc1)c1ccc(S(=O)(=O)N2CCCCC2)cc1[N+](=O)[O-] | -16.7
O=C(CSc1nc2ccccc2o1)Nc1nccs1 | 9.44
O=C(O)C(=O)O.c1ccc(-c2ccccc2OCCCN2CCOCC2)cc1 | -37.1
Cc1nc2ccc(C(=O)O)cc2c2c1CC(C)S2 (stereo not drawn) | -16
CCC1(C)Cc2c(sc3[nH]c(=O)[nH]c(=O)c23)CS1 (stereo not drawn) | 3.94
Cc1cccc(-c2cc3nc(C)cc(C)n3n2)c1 | 2.6
COc1ccc(/C=C(\NC(=O)c2cccs2)C(=O)NCc2ccco2)cc1OC | 2.74
CC1(C)CC(=O)C(C=NCCN2CCNC2=O)=C(O)C1 | 18.4
O=C(COc1cccc(F)c1)N1c2ccccc2Sc2ccccc21 | 7.13
COc1ccc(C(=O)N[C@H]2COC(C)(C)O[C@H]2c2ccccc2)cc1 | 2.9
NC(=O)C1CCN(C(=O)CSc2nc3ccccc3[nH]2)CC1 | 4.06
Clc1cccc(Cl)c1Cn1cnc(=NCc2ccco2)c2[nH]cnc21 | -14.2
CCCC(=O)Nc1ccc(C(=O)n2nnc3ccccc32)cc1 | 19.5
O=C(NCc1ccccc1Cl)c1ccc(Cn2cc(C(F)(F)F)ccc2=O)cc1 | -24
COc1ccc(C(=O)Nc2cc3c(cc2C(=O)O)OCCCO3)c(OC)c1 | -37.2
CC(C)(C)n1nc2c(c1NC(=O)c1ccc(F)c(F)c1)CS(=O)(=O)C2 | 3.79

Structure (SMILES) | hERG current change (%, negative = inhibition) at 10uM [%]
CC(C)NC(=O)c1ccc(-n2c(=S)[nH]c3ccccc3c2=O)cc1 | 27.1
O=C(CCN1C(=O)COc2ccccc21)NCc1cccnc1 | 6.28
COc1ccc(OC)c(-c2cc(C(=O)NCCCn3ccnc3)no2)c1 | -13.2
Cc1ccc(NC(=O)c2ccc(-c3nn(C)c(=O)c4ccccc34)cc2)cc1 | -15.7
CCc1nc2ccccc2c(C(=O)OCC(=O)NCc2ccc3c(c2)OCO3)c1C | -15.6
CCOc1ccccc1CNC(=O)CCNS(=O)(=O)c1ccc2[nH]c(=O)oc2c1 | -2.89
O=C(COCc1nc2ccccc2c(=O)[nH]1)NC1CCCC1 | -2.39
COc1ccc(C(=O)Nc2ccc(N3CCN(C)CC3)cc2)cc1[N+](=O)[O-] | -38.5
CCN(CC)CCN(Cc1cc2cc3c(cc2[nH]c1=O)OCCO3)C(=S)NCC1CCCO1 (stereo not drawn) | -4.28
C=CCn1c(C)cc(C(=O)CSc2nnc(Cc3ccccc3)o2)c1C | 4.19
Cc1ccc2oc(=O)c3cc(C(=O)NCCCN4CCCCCC4)sc3c2c1 | -40.2
CC(OC(=O)/C=C/c1cccc(C(F)(F)F)c1)C(=O)NC1CCCCC1C (stereo not drawn) | 17.3
COc1cccc(CNC(=O)CCN2C(=S)NC(C)(C)CC2C)c1 (stereo not drawn) | 6.18
COc1cc(OC)cc(-c2nc(-c3ccccc3OC)no2)c1 | 1.48
CCCOc1ccc(C(=O)NCC(c2cccs2)N(C)C)cc1OC (stereo not drawn) | -46.4
CC(C)OC12Oc3ccccc3C=C1N1CCC2CC1 (stereo not drawn) | 0.566
c1csc(-c2nnc(COc3ncnc4sccc34)o2)c1 | -7.68
CCc1nc(SC)[nH]c(=O)c1C | 4.37
COc1ccc(N=C(C)c2c(O)n(C)c(=O)n(C)c2=O)c(OC)c1 | -3.03
COc1ccc(Cc2nnc(Nc3c(C)cccc3C)o2)cc1OC | 8.5
COC(=O)c1cccc(Cn2c(Cl)c(/C=N/NC(=O)c3ccco3)sc2=O)c1 | 10.4
